# Laboratory results from a collection of fitness landscapes (doi:10.1016/j.celrep.2020.107928).
# The full ranking holds about 81,000 sequences; the median of “one-hybrid fitness for binding NBS DNA” is about -0.1, and the highest 2% start at about 0.36. The list shows a part of the results.
# B1: Caulobacter ParB omega fusion; a variant is named by its letters at X, in order, B8GW30 (parent)
# chain: MESVVVGEPGMSEGRRGLGRGLSALLGEVDAAPAQAPGEQLGGSREAPIEILQRNPDQPRRTFREEDLEDLSNSIREKGVLQPILVRPSPDTAGEYQIVAGERAWRAAQRAGLKTVPIMVRELDDLAVLEIGIIENVQRADLNVLEEALSYKVLMEKFERTQENIAQTIGKSXSHVANXMRLLXLPDEVQSYLVSGELTAXHARAIAAAADPVALAKQIIEGGLSVRETEALARKAPNLSAGKSKGGRPPRVKDTDTQALESDLSSVLGLDVSIDHRGSTGTLTITYATLEQLDDLCNRLTRGI
# Variants of: B1
# Assay: one-hybrid fitness for binding NBS DNA (the Noc-binding site; scaled: cognate 1, non-cognate 0); higher = stronger binding
# Settings: with NBS DNA site
# In short: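 The reporter was HIS3, with the binding site 19 bp from the promoter, in E. coli USO used for bacterial one-hybrid selection of Caulobacter ParB libraries with four specificity codons randomised. Growth was on M9 lacking histidine, with 0.1 mM IPTG and 5 mM 3-AT, for 48 hours at 37°C. Illumina sequencing covered plasmids before and after selection; three replicate libraries were pooled and variants with under 10 reads dropped. A fitness score is the log change in variant-to-wild-type read ratio, rescaled to the cognate and non-cognate references.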
row,Variant,one-hybrid fitness for binding NBS DNA
1,PKSG,≤ 0.2
2,RMFC,≤ 0.2
3,VQMM,≤ 0.2
4,PKRN,≤ 0.2
5,TMAG,≤ 0.2
6,VCLI,≤ 0.2
7,GCDC,≤ 0.2
8,LWKN,≤ 0.2
9,IRMS,≤ 0.2
10,ILIH,≤ 0.2
11,EWDA,≤ 0.2
12,HQRC,≤ 0.2
13,YFMT,≤ 0.2
14,SFFR,≤ 0.2
15,KRHD,≤ 0.2
16,MREN,≤ 0.2
17,DFSG,≤ 0.2
18,THPT,≤ 0.2
19,ARIN,≤ 0.2
20,REAN,≤ 0.2
21,HDAG,≤ 0.2
22,HMKG,≤ 0.2
23,INAG,≤ 0.2
24,PWRI,≤ 0.2
25,EGHK,≤ 0.2
26,YCAA,≤ 0.2

row,Variant,one-hybrid fitness for binding NBS DNA
1,WQLG,≤ 0.2
2,QVKK,0.221
3,QCGQ,0.24
4,CGAF,≤ 0.2
5,KHKA,≤ 0.2
6,HRRQ,≤ 0.2
7,FVSR,≤ 0.2
8,PMEF,≤ 0.2
9,KTNT,0.226
10,VGAS,≤ 0.2
11,SNIK,≤ 0.2
12,FWPY,≤ 0.2
13,KVPW,≤ 0.2
14,SYRL,≤ 0.2
15,VWER,≤ 0.2
16,KIAI,≤ 0.2
17,GAAT,≤ 0.2
18,NYLL,≤ 0.2
19,WTDD,≤ 0.2
20,WLRT,≤ 0.2
21,LTDT,≤ 0.2
22,NSVR,≤ 0.2
23,IVRW,≤ 0.2
24,SPYS,≤ 0.2
25,IYTC,≤ 0.2
26,GLRF,≤ 0.2

row,Variant,one-hybrid fitness for binding NBS DNA
1,LQFT,≤ 0.2
2,FCTC,≤ 0.2
3,LWER,≤ 0.2
4,TLAL,≤ 0.2
5,PSWM,≤ 0.2
6,NILG,≤ 0.2
7,TPPA,≤ 0.2
8,PTQA,≤ 0.2
9,RVTG,≤ 0.2
10,PAVL,≤ 0.2
11,PCET,≤ 0.2
12,CKSF,≤ 0.2
13,DGDP,≤ 0.2
14,YSAW,≤ 0.2
15,VAKL,≤ 0.2
16,IVKS,≤ 0.2
17,NMPA,≤ 0.2
18,KTIC,≤ 0.2
19,TADS,≤ 0.2
20,ECLG,≤ 0.2
21,GRMF,≤ 0.2
22,HLPI,≤ 0.2
23,NLPM,≤ 0.2
24,VRKT,0.393
25,GWPW,≤ 0.2
26,SYVG,≤ 0.2

row,Variant,one-hybrid fitness for binding NBS DNA
1,SAYV,≤ 0.2
2,SVEV,≤ 0.2
3,GPHS,≤ 0.2
4,CHQA,≤ 0.2
5,YHWR,≤ 0.2
6,AKIM,≤ 0.2
7,KQQC,≤ 0.2
8,ALPI,≤ 0.2
9,GPWM,≤ 0.2
10,ILGV,≤ 0.2
11,PIGA,≤ 0.2
12,KWRC,≤ 0.2
13,STRN,≤ 0.2
14,QTSF,≤ 0.2
15,IHDA,≤ 0.2
16,IGVR,≤ 0.2
17,PTKY,≤ 0.2
18,YVAW,≤ 0.2
19,LDLC,≤ 0.2
20,NITD,≤ 0.2
21,MYHS,≤ 0.2
22,FPKS,≤ 0.2
23,LPTL,≤ 0.2
24,SNSE,≤ 0.2
25,SHHP,≤ 0.2
26,IMYD,≤ 0.2

row,Variant,one-hybrid fitness for binding NBS DNA
1,DGVK,≤ 0.2
2,RQVS,0.211
3,PAIC,≤ 0.2
4,QYAY,≤ 0.2
5,NICT,≤ 0.2
6,HFMG,≤ 0.2
7,HYLY,≤ 0.2
8,AFTE,≤ 0.2
9,QPSS,≤ 0.2
10,YCSF,≤ 0.2
11,RERK,≤ 0.2
12,QCGN,≤ 0.2
13,FICS,≤ 0.2
14,ADPR,≤ 0.2
15,VKYA,≤ 0.2
16,IKTF,≤ 0.2
17,MHLI,≤ 0.2
18,TLVG,≤ 0.2
19,KCEI,≤ 0.2
20,RKWW,≤ 0.2
21,AEPE,≤ 0.2
22,HVDR,≤ 0.2
23,NYNT,≤ 0.2
24,DDRY,≤ 0.2
25,MCKR,≤ 0.2
26,TKPR,≤ 0.2

row,Variant,one-hybrid fitness for binding NBS DNA
1,DKQI,≤ 0.2
2,PACS,≤ 0.2
3,CMNP,≤ 0.2
4,QKGI,≤ 0.2
5,DYGT,≤ 0.2
6,LMTQ,≤ 0.2
7,RSNS,0.508
8,FDKR,≤ 0.2
9,GIEL,≤ 0.2
10,SAVY,≤ 0.2
11,TLIG,≤ 0.2
12,WQQR,≤ 0.2
13,QTKD,0.398
14,TCHV,≤ 0.2
15,APYH,≤ 0.2
16,DHTG,≤ 0.2
17,TSSD,≤ 0.2
18,GPTR,≤ 0.2
19,MQVH,≤ 0.2
20,RFGW,≤ 0.2
21,SRTG,≤ 0.2
22,HSCW,≤ 0.2
23,DVDT,≤ 0.2
